This is one part of the list. Antibody binding of pooled human sera (four to six donors per pool; dilution not stated) to peptides of the Trypanosoma cruzi antigen TSSA on microarrays. Quantile-normalised fluorescence in arbitrary units, mean of duplicate arrays; higher = more binding. No active / inactive call. The uninfected pools are read here as the healthy donors of the same country. The strongest signals lie near the top of the scale (about 60,000).
Tests used:
Assay in all cases: antibody binding signal (normalised fluorescence) (arbitrary fluorescence units); higher = stronger serum antibody binding to peptide
[1] = system: pooled sera of chronic Chagas disease patients, Argentina
Experimental: (§1)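 Microarray of 15-residue peptides over residues 30-55 of Trypanosoma cruzi TSSAII, each with 1 to 10 substitutions at naturally variable positions, probed with one serum pool per country.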

[2] = system: pooled sera of chronic Chagas disease patients, Bolivia
Experimental: as §1

[3] = system: pooled sera of chronic Chagas disease patients, Brazil
Experimental: as §1

[4] = system: pooled sera of chronic Chagas disease patients, Colombia
Experimental: as §1

[5] = system: pooled sera of chronic Chagas disease patients, Mexico
Experimental: as §1

[6] = system: pooled sera of chronic Chagas disease patients, USA
Experimental: as §1

[7] = system: pooled sera of uninfected people, Argentina
Experimental: as §1

[8] = system: pooled sera of uninfected people, Bolivia
Experimental: as §1

[9] = system: pooled sera of uninfected people, Brazil
Experimental: as §1

[10] = system: pooled sera of uninfected people, Colombia
Experimental: as §1

[11] = system: pooled sera of uninfected people, Mexico
Experimental: as §1

[12] = system: pooled sera of uninfected people, USA
Experimental: as §1

Sequence	antibody binding signal [1]	antibody binding signal [2]	antibody binding signal [3]	antibody binding signal [4]	antibody binding signal [5]	antibody binding signal [6]	antibody binding signal [7]	antibody binding signal [8]	antibody binding signal [9]	antibody binding signal [10]	antibody binding signal [11]	antibody binding signal [12]
TDNKPATGETPSQPG	35900	30100	41300	326	188	27900	285	809	598	261	1730	196
SGKEKKPATGEAPSQ	46200	11100	42700	2030	4720	37100	1030	511	108	211	102	302
DKKAAAGGAPSQPGA	433	358	2890	5000	515	483	205	134	219	137	150	155
SSTPPSGKDKKPAAG	17500	8770	8580	338	42200	1150	359	513	227	198	223	160
GKDKKAAAGGAPSPS	222	178	181	2240	835	413	125	77.4	116	95.3	85.1	98.2
PSGKENKPAAGETPS	9600	6960	14100	10800	11000	10600	7610	5360	428	660	669	285
SSTPPSGTDNKAATG	32800	47900	51100	1200	10100	20000	986	650	1770	163	293	284
DKKAAAGGTPSPSGA	736	186	184	5330	471	1570	166	119	1900	157	99.3	186
SGKDNKTAAGETPSQ	1010	443	1950	3420	1040	3210	283	345	166	692	206	163
TDKKPATGGTPSPSG	1100	996	600	3090	769	1020	256	703	1380	298	230	165
KEKKAATGGAPSQSG	466	218	326	233	1590	527	203	97.6	110	341	82.7	107
GKDKKTAAGEAPSQP	658	3240	25200	544	667	3800	178	101	95.4	303	72.5	71.2
KDNKAATGGTPSPPG	261	623	317	260	271	258	175	798	237	152	106	103
TEKKTATGEAPSPSG	11800	27200	12500	387	480	21800	208	162	244	137	191	222
GKDNKPAAGGAPSPS	258	194	925	877	610	617	232	448	92.2	124	127	114
NKPAAGETPSQSGAS	247	4080	22900	240	214	1900	405	788	478	447	369	963
SGKDKKAAAGGAPSQ	428	166	315	3350	888	984	123	78.5	92.2	136	65.9	92.1
NKPAAGGTPSQSGAS	223	242	2360	1620	356	255	620	905	1470	480	792	1180
GTEKKTAAGGTPSPS	684	183	881	10300	617	2210	137	388	859	325	207	210
ISTPPSGTENKTATG	48200	51400	51000	452	4430	30500	4470	652	630	1150	876	704
